Experimental data reported in US20140315876A1, “BETA-LACTAMASE INHIBITORS” (priority 2013, published 2014).
Counter-ions that a name gives are not always drawn. Some of these results come from one statement about several compounds together. For at least one compound, name, drawing or mass did not settle the structure.

Target: KPC-2 β-lactamase (Klebsiella pneumoniae, UniProt Q9F663)
Assay type: biochemical, K. pneumoniae
Conditions: KPC-2, 100 μM nitrocefin, PBS pH 7.4, 25° C. (Table IV)

Sequence of KPC-2 β-lactamase (Q9F663 25-293 limits assumed): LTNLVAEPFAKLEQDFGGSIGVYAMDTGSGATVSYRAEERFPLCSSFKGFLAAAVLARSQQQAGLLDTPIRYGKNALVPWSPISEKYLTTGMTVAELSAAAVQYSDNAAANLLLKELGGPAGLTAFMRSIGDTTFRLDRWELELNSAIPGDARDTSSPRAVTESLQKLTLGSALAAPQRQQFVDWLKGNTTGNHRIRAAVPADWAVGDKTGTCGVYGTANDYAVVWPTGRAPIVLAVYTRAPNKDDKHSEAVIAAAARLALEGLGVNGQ

Compound	binding affinity (kinact/K) for the β-lactamase enzyme [M⁻¹ s⁻¹]
NCCCCc1nnc([C@@H]2CC[C@@H]3CN2C(=O)N3OS(=O)(=O)O)o1 [Compound 735, (2S,5R)-2-(5-(4-aminobutyl)-1,3,4-oxadiazol-2-yl)-7-oxo-1,6-diazabicyclo[3.2.1]octan-6-yl hydrogen sulfate]	1000 to 99000
O=C1N2C[C@@H](CC[C@H]2c2nnc(CCNCCO)o2)N1OS(=O)(=O)O [Compound 736, (2S,5R)-2-(5-(2-((2-hydroxyethyl)amino)ethyl)-1,3,4-oxadiazol-2-yl)-7-oxo-1,6-diazabicyclo[3.2.1]octan-6-yl hydrogen sulfate]	1000 to 99000
CC(C)(N)Cc1nnc([C@@H]2CC[C@@H]3CN2C(=O)N3OS(=O)(=O)O)o1 [Compound 737, (2S,5R)-2-(5-(2-amino-2-methylpropyl)-1,3,4-oxadiazol-2-yl)-7-oxo-1,6-diazabicyclo[3.2.1]octan-6-yl hydrogen sulfate]	1000 to 99000
N=C(N)Nc1nnc([C@@H]2CC[C@@H]3CN2C(=O)N3OS(=O)(=O)O)o1 [Compound 738, (2S,5R)-2-(5-guanidino-1,3,4-oxadiazol-2-yl)-7-oxo-1,6-diazabicyclo[3.2.1]octan-6-yl hydrogen sulfate]	1000 to 99000
N=C(N)NC1(Cc2nnc([C@@H]3CC[C@@H]4CN3C(=O)N4OS(=O)(=O)O)o2)CC1 [Compound 739, (2S,5R)-2-(5-((1-guanidinocyclopropyl)methyl)-1,3,4-oxadiazol-2-yl)-7-oxo-1,6-diazabicyclo[3.2.1]octan-6-yl hydrogen sulfate]	1000 to 99000
O=C1N2C[C@@H](CC[C@H]2c2nnc([C@H]3[C@@H]4CNC[C@@H]43)o2)N1OS(=O)(=O)O [Compound 740, (2S,5R)-2-(5-(3-azabicyclo[3.1.0]hexan-6-yl)-1,3,4-oxadiazol-2-yl)-7-oxo-1,6-diazabicyclo[3.2.1]octan-6-yl hydrogen sulfate]	100000 to 999000
N=C(N)N1CC(Cc2nnc([C@@H]3CC[C@@H]4CN3C(=O)N4OS(=O)(=O)O)o2)C1 [Compound 741, (2S,5R)-2-(5-((1-carbamimidoylazetidin-3-yl)methyl)-1,3,4-oxadiazol-2-yl)-7-oxo-1,6-diazabicyclo[3.2.1]octan-6-yl hydrogen sulfate]	100000 to 999000
O=C1N2C[C@@H](CC[C@H]2c2nnc(CCCC3CNC3)o2)N1OS(=O)(=O)O [Compound 743, (2S,5R)-2-(5-(3-(azetidin-3-yl)propyl)-1,3,4-oxadiazol-2-yl)-7-oxo-1,6-diazabicyclo[3.2.1]octan-6-yl hydrogen sulfate]	100000 to 999000
O=C1N2C[C@@H](CC[C@H]2c2nnc(COC3CNC3)o2)N1OS(=O)(=O)O [Compound 744, (2S,5R)-2-(5-((azetidin-3-yloxy)methyl)-1,3,4-oxadiazol-2-yl)-7-oxo-1,6-diazabicyclo[3.2.1]octan-6-yl hydrogen sulfate]	1000 to 99000
O=C1N2C[C@@H](CC[C@H]2c2nnc(CCNC3CNC3)o2)N1OS(=O)(=O)O [Compound 745, (2S,5R)-2-(5-(2-(azetidin-3-ylamino)ethyl)-1,3,4-oxadiazol-2-yl)-7-oxo-1,6-diazabicyclo[3.2.1]octan-6-yl hydrogen sulfate]	100000 to 999000
N=C(N)N1CC(NCc2nnc([C@@H]3CC[C@@H]4CN3C(=O)N4OS(=O)(=O)O)o2)C1 [Compound 746, (2S,5R)-2-(5-(((1-carbamimidoylazetidin-3-yl)amino)methyl)-1,3,4-oxadiazol-2-yl)-7-oxo-1,6-diazabicyclo[3.2.1]octan-6-yl hydrogen sulfate]	100000 to 999000
O=C1N2C[C@@H](CC[C@H]2c2nnc(C3CC4(CNC4)C3)o2)N1OS(=O)(=O)O [Compound 750, (2S,5R)-2-(5-(2-azaspiro[3,3]heptan-6-yl)-1,3,4-oxadiazol-2-yl)-7-oxo-1,6-diazabicyclo[3.2.1]octan-6-yl hydrogen sulfate]	1000 to 99000
O=C1N2C[C@@H](CC[C@H]2c2nnc([C@H]3CCNC3)o2)N1OS(=O)(=O)O [Compound 758, (2S,5R)-7-oxo-2-(5-((S)-pyrrolidin-3-yl)-1,3,4-oxadiazol-2-yl)-1,6-diazabicyclo[3.2.1]octan-6-yl hydrogen sulfate]	1000 to 99000
O=C1N2C[C@@H](CC[C@H]2c2nnc([C@@H]3CCNC3)o2)N1OS(=O)(=O)O [Compound 759, (2S,5R)-7-oxo-2-(5-((R)-pyrrolidin-3-yl)-1,3,4-oxadiazol-2-yl)-1,6-diazabicyclo[3.2.1]octan-6-yl hydrogen sulfate]	1000 to 99000
N[C@@H]1CN[C@H](c2nnc([C@@H]3CC[C@@H]4CN3C(=O)N4OS(=O)(=O)O)o2)C1 [Compound 760, (2S,5R)-2-(5-((2S,4S)-4-aminopyrrolidin-2-yl)-1,3,4-oxadiazol-2-yl)-7-oxo-1,6-diazabicyclo[3.2.1]octan-6-yl hydrogen sulfate]	1000 to 99000
N[C@H]1CN[C@@H](c2nnc([C@@H]3CC[C@@H]4CN3C(=O)N4OS(=O)(=O)O)o2)C1 [Compound 761, (2S,5R)-2-(5-((2R,4R)-4-aminopyrrolidin-2-yl)-1,3,4-oxadiazol-2-yl)-7-oxo-1,6-diazabicyclo[3.2.1]octan-6-yl hydrogen sulfate]	1000 to 99000
N[C@H]1CN[C@H](c2nnc([C@@H]3CC[C@@H]4CN3C(=O)N4OS(=O)(=O)O)o2)C1 [Compound 762, (2S,5R)-2-(5-((2S,4R)-4-aminopyrrolidin-2-yl)-1,3,4-oxadiazol-2-yl)-7-oxo-1,6-diazabicyclo[3.2.1]octan-6-yl hydrogen sulfate]	1000 to 99000
N[C@@H]1CN[C@@H](c2nnc([C@@H]3CC[C@@H]4CN3C(=O)N4OS(=O)(=O)O)o2)C1 [Compound 763, (2S,5R)-2-(5-((2R,4S)-4-aminopyrrolidin-2-yl)-1,3,4-oxadiazol-2-yl)-7-oxo-1,6-diazabicyclo[3.2.1]octan-6-yl hydrogen sulfate]	1000 to 99000
O=C1N2C[C@@H](CC[C@H]2c2nnc(CC3CCNC3)o2)N1OS(=O)(=O)O (stereo partly drawn) [Compound 764, (2S,5R)-7-oxo-2-(5-(pyrrolidin-3-ylmethyl)-1,3,4-oxadiazol-2-yl)-1,6-diazabicyclo[3.2.1]octan-6-yl hydrogen sulfate]	1000 to 99000
O=C1N2C[C@@H](CC[C@H]2c2nnc(CN[C@H]3CCNC3)o2)N1OS(=O)(=O)O [Compound 765, (2S,5R)-7-oxo-2-(5-(((S)-pyrrolidin-3-ylamino)methyl)-1,3,4-oxadiazol-2-yl)-1,6-diazabicyclo[3.2.1]octan-6-yl hydrogen sulfate]	1000 to 99000
O=C1N2C[C@@H](CC[C@H]2c2nnc(CN[C@@H]3CCNC3)o2)N1OS(=O)(=O)O [Compound 766, (2S,5R)-7-oxo-2-(5-(((R)-pyrrolidin-3-ylamino)methyl)-1,3,4-oxadiazol-2-yl)-1,6-diazabicyclo[3.2.1]octan-6-yl hydrogen sulfate]	1000 to 99000
N=C1NCC(c2nnc([C@@H]3CC[C@@H]4CN3C(=O)N4OS(=O)(=O)O)o2)N1 (stereo partly drawn) [Compound 767, (2S,5R)-2-(5-(2-iminoimidazolidin-4-yl)-1,3,4-oxadiazol-2-yl)-7-oxo-1,6-diazabicyclo[3.2.1]octan-6-yl hydrogen sulfate]	100000 to 999000
O=C1N2C[C@@H](CC[C@H]2c2nnc(CNC3CCNCC3)o2)N1OS(=O)(=O)O [Compound 769, (2S,5R)-7-oxo-2-(5-((piperidin-4-ylamino)methyl)-1,3,4-oxadiazol-2-yl)-1,6-diazabicyclo[3.2.1]octan-6-yl hydrogen sulfate]	1000 to 99000
O=C1N2C[C@@H](CC[C@H]2c2nnc(CCNC3CCNCC3)o2)N1OS(=O)(=O)O [Compound 770, (2S,5R)-7-oxo-2-(5-(2-(piperidin-4-ylamino)ethyl)-1,3,4-oxadiazol-2-yl)-1,6-diazabicyclo[3.2.1]octan-6-yl hydrogen sulfate]	100000 to 999000
O=C1N2C[C@@H](CC[C@H]2c2nnc(CCCNC3CCNCC3)o2)N1OS(=O)(=O)O [Compound 771, (2S,5R)-7-oxo-2-(5-(3-(piperidin-4-ylamino)propyl)-1,3,4-oxadiazol-2-yl)-1,6-diazabicyclo[3.2.1]octan-6-yl hydrogen sulfate]	1000 to 99000
O=C1N2C[C@@H](CC[C@H]2c2nnc(CCCCNC3CCNCC3)o2)N1OS(=O)(=O)O [Compound 772, (2S,5R)-7-oxo-2-(5-(4-(piperidin-4-ylamino)butyl)-1,3,4-oxadiazol-2-yl)-1,6-diazabicyclo[3.2.1]octan-6-yl hydrogen sulfate]	1000 to 99000
NC1CCN(c2nnc([C@@H]3CC[C@@H]4CN3C(=O)N4OS(=O)(=O)O)o2)CC1 [Compound 773, (2S,5R)-2-(5-(4-aminopiperidin-1-yl)-1,3,4-oxadiazol-2-yl)-7-oxo-1,6-diazabicyclo[3.2.1]octan-6-yl hydrogen sulfate]	1000 to 99000
NC1CCN(Cc2nnc([C@@H]3CC[C@@H]4CN3C(=O)N4OS(=O)(=O)O)o2)CC1 [Compound 774, (2S,5R)-2-(5-((4-aminopiperidin-1-yl)methyl)-1,3,4-oxadiazol-2-yl)-7-oxo-1,6-diazabicyclo[3.2.1]octan-6-yl hydrogen sulfate]	1000 to 99000
O=C1N2C[C@@H](CC[C@H]2c2nnc(CN3CCNCC3)o2)N1OS(=O)(=O)O [Compound 777, (2S,5R)-7-oxo-2-(5-(piperazin-1-ylmethyl)-1,3,4-oxadiazol-2-yl)-1,6-diazabicyclo[3.2.1]octan-6-yl hydrogen sulfate]	1000 to 99000
